# Assay results as given in PubChem BioAssay AID760 (NMMLSC, 2007).
# Screen size: about 190,000 compounds; about 360 (0.19%) were called active. The inconclusive results got no clear call from the source; some entries with a clear call stand among them for comparison.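 The calls were made as follows: active = GTP binding activity at least 20 points away from 100%, either lowered or raised; inconclusive = signal likely due to the compound's own green fluorescence; inactive = the rest.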
# Biological target: Ras-related protein Rab-2A (Canis lupus familiaris) (UniProt P61105)
# Assay: Rab2 wt fluorescent GTP binding changes, either direction – biochemical, dog, bead-based flow cytometry, multiplex, primary screen (AID 760);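 also: 0% = beads with excess unlabeled GTP and 100% = no-compound control corrected for plate trend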
# Settings: GST-Rab2 wt beads, Bodipy-GTP binding, at 10 µM
row,SMILES,GTP binding activity
1,O=C(O)CC/C(=N/Nc1ncc(C(F)(F)F)cc1Cl)C(=O)O,inactive: 100%
2,CN1/C(=C/C2CC(=O)N(c3ccc([N+](=O)[O-])cc3)C2=O)C(C)(C)c2ccccc21 (stereo not given),inconclusive: 87%
3,Cc1cccc(-n2c(Cc3ccccc3)n[nH]c2=S)c1,inconclusive: 93%
4,COCCNC(=O)Cn1cnc2ccc(S(=O)(=O)N3CCC(C)CC3)cc2c1=O,inconclusive: 105%
5,c1ccc(CCC2CCCCN2Cc2cn[nH]c2-c2cc3ccccc3o2)nc1 (stereo not given),inactive: 100%
6,CCC(/C=N/NC(=O)CCCCC(=O)N/N=C/C(CC)CC)CC,inactive: 101%
7,CCOc1ccc(C(CC(=O)O)NC(=O)c2sc3ccccc3c2Cl)cc1 (stereo not given),inactive: 94%
8,O=C(/C=C/c1c(Cl)nc2ccccn12)N1CCCCC1,inconclusive: 168%
9,Cc1ccc(OCCSc2ncnc3sc(C)c(C)c23)cc1C,inconclusive: 85%
10,COc1cc(NC(=O)c2cccs2)c(OC)cc1NC(=O)CCC(=O)Nc1cccc2ncccc12,active: 71%
11,CCN(CC)S(=O)(=O)c1cccc(-c2nnc(SCC(=O)NC3CCCC3)n2N)c1,inconclusive: 93%
12,O=C(Nc1ccc2c(c1)OCO2)c1cc2ncc(Br)cn2n1,inconclusive: 93%
13,CC(=O)c1cccc(NC(=O)C(CC(C)C)NC(=O)C2CCCCC2)c1 (stereo not given),inactive: 99%
14,CCN(CC(=O)Nc1cccc(C#N)c1)CC(=O)Nc1cccc(OC)c1,inconclusive: 91%
15,CN1CC(=O)N(CC(=O)Nc2ccc(Cl)c(C(F)(F)F)c2)C1=O,inconclusive: 107%
16,COc1cc(NS(=O)(=O)c2ccc(NC(=O)/C(=C/c3ccccc3Cl)NC(=O)c3ccccc3)cc2)nc(OC)n1,inconclusive: 88%
17,Clc1ccc(-c2noc(CN3CCN(c4ccccc4)CC3)n2)cc1,inconclusive: 88%
18,COc1cccc(N2CCN(C3CCCC(C)C3)CC2)c1 (stereo not given),inconclusive: 105%
19,O=C(Nc1nnc(-c2ccccc2)o1)c1ccc(Cl)cc1,inconclusive: 86%
20,Oc1ccccc1CNc1ccc(OC(F)(F)F)cc1,inactive: 96%
21,O=C(O)C1=C[C@H](c2ccc(C(F)(F)F)cc2)C[C@H](OCc2ccc(CO)cc2)O1,active: 76%
22,CCCn1nc(Oc2nc(NCC)nc(NC(C)C)n2)ccc1=O,inconclusive: 102%
23,Cc1cc(C)c2nc(NNC(=O)c3cc(=O)c4ccccc4o3)sc2c1,active: 79%
24,Cn1c(CCNC(=O)c2cccs2)nnc1SCC(=O)Nc1nc(-c2ccccc2)cs1,inconclusive: 101%
25,CCOC(=O)CCNC(=O)Nc1ccc2nc(C)n(Cc3ccc(Cl)cc3)c(=O)c2c1,inconclusive: 101%
